Data on 44 compounds can be found in PMC4336329 (PLoS ONE, 2015).

Screen size: about 310,000 compounds; about 14,000 (4.5%) showed an effect of 50% or more. The effect is printed as a negative number. The list shows a part of the results.
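Further: peak tail current of the secondary pulse compared with the same well before compound.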

human ether-à-go-go-related gene (hERG) potassium channel, sequence (Q12809 whole entry, looked up): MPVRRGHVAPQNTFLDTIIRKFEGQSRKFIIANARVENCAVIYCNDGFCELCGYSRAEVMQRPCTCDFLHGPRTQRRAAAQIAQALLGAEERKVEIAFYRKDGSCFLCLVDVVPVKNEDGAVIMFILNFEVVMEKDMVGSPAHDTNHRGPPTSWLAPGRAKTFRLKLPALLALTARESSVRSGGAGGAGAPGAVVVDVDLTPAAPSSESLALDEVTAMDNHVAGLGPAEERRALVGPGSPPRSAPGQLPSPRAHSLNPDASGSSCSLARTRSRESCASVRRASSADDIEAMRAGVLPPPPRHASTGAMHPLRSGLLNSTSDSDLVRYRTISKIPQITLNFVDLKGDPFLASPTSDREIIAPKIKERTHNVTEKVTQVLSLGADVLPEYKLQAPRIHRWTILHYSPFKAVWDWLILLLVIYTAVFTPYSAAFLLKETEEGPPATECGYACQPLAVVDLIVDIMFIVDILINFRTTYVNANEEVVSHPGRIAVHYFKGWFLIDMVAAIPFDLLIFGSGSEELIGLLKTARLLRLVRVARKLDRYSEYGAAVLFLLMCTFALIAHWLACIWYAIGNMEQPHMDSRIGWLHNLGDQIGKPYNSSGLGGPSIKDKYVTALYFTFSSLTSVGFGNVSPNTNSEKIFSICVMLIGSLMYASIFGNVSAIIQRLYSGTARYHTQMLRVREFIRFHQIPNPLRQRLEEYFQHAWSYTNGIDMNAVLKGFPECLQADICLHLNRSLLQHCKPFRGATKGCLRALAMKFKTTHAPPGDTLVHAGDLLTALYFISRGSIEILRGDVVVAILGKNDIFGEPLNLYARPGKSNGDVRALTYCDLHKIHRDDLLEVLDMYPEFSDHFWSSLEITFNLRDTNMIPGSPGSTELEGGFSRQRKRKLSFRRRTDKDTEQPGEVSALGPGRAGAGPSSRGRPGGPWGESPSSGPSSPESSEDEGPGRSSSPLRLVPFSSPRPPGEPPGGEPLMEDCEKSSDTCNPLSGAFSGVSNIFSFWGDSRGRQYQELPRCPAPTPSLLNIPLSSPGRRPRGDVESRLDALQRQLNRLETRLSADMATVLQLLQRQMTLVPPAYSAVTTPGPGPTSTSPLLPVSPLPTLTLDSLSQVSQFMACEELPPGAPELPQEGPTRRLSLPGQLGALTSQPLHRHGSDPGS

This experiment has as its target human ether-à-go-go-related gene (hERG) potassium channel (human, UniProt Q12809). Description: primary screen, population patch clamp on CHO cells stably expressing hERG.
Consider `COc1ccccc1C(=O)N/N=C/c1ccc(Cl)s1`, for which the “hERG current change (%, negative = inhibition) at 10uM” value was -16.1%. Then `CC(O)(CS(=O)(=O)c1cccc(C(F)(F)F)c1)C(=O)Nc1cccc(C(F)(F)F)c1` (centres unmarked), with -14.5%. Then `O=C(CN(CC1CCCO1)S(=O)(=O)c1ccc(S(=O)(=O)NCC2CCCO2)cc1)Nc1ccccc1` (centres unmarked), with -14.2%. For the compound `COC(=O)C1=C[C@@H](C(=O)OC)[C@@H]2C3=C(C(=O)[C@@]2(C)NC(=O)c2ccccc2)[C@H](c2ccccc2)[C@@H]2C(=O)NC(=O)[C@@H]2[C@@H]3C1`, the “hERG current change (%, negative = inhibition) at 10uM” value is 7.14%. For `Cc1ccc(NC(=O)CCc2nc(-c3cccs3)no2)c(Br)c1`, the “hERG current change (%, negative = inhibition) at 10uM” value was 5.09%. As for `O=C(C[n+]1cc(Br)cc(Br)c1)c1ccc(-c2ccccc2)cc1.[Br-]`, the “hERG current change (%, negative = inhibition) at 10uM” value is listed as -28.4%. `COc1ccc(CN2CCN(c3cc(C)nc4c5c(C)cc(C)nc5nn34)CC2)cc1F`: the “hERG current change (%, negative = inhibition) at 10uM” value is listed as -16.8%. On to `N#Cc1cccc(NCC(=O)Nc2ccc3c(c2)OCCO3)c1`, for which the “hERG current change (%, negative = inhibition) at 10uM” value is reported as 1.94%.

For the compound `CCc1cc2c(=O)c(-n3cnc4ccccc43)coc2cc1O`, the “hERG current change (%, negative = inhibition) at 10uM” value was -17.3%. Consider `O=C(CCC(=O)N1CCN(c2ccccc2F)CC1)N1CCN(c2ccc(F)cc2)CC1`, for which the “hERG current change (%, negative = inhibition) at 10uM” value is -46.9%. The value for `COCCCNC(=S)NNC(=S)Nc1ccc(F)cc1F` was 19.2%. For `CCn1cc(CCC(=O)O)c(C)n1`, the “hERG current change (%, negative = inhibition) at 10uM” value is -1.38%. In the case of `CN(Cc1ccccc1)C(=O)c1ccccc1NC(=O)c1ccco1`, the “hERG current change (%, negative = inhibition) at 10uM” value came to 20%. Then `Cc1cc(=O)oc2cc(OCC3CC(c4ccccc4Cl)=NO3)ccc12` (centres unmarked), with -12.4%.

Regarding `C/C(=N\Nc1ccc(Cl)cc1)c1ccncc1.Cl`, the “hERG current change (%, negative = inhibition) at 10uM” value is -5.05%. Consider `O=C(c1ccc(Br)o1)N(c1ccc(Br)cc1)C1C=CS(=O)(=O)C1` (centres unmarked), for which the “hERG current change (%, negative = inhibition) at 10uM” value is -40.5%. Consider `Cn1c(=NC(=O)c2ccco2)sc2ccccc21`, for which the “hERG current change (%, negative = inhibition) at 10uM” value is on record as 11.6%. Take `CCCCN(Cc1ccco1)C(=O)Cn1ncc2c(=O)oc3ccc(C)cc3c21`: the “hERG current change (%, negative = inhibition) at 10uM” value is 13.2%.

As to `CCOc1ccc(OCCn2c(=S)[nH]c3ccccc32)cc1`, the “hERG current change (%, negative = inhibition) at 10uM” value stood at 22.9%. `COc1cc(S(=O)(=O)N(C)C)ccc1F`: the “hERG current change (%, negative = inhibition) at 10uM” value came to 36.3%. As to `C=C(C)CSc1nc2ccccc2[nH]1`, the “hERG current change (%, negative = inhibition) at 10uM” value is 9.1%.

Turning to `CCOC(=O)C1(CCc2ccccc2)CCN(C(=O)CN2CCOC2=O)CC1`, the “hERG current change (%, negative = inhibition) at 10uM” value was 14.6%. `COc1ccc(C)cc1N(C)C(=O)c1coc(=O)c2ccccc12`: the “hERG current change (%, negative = inhibition) at 10uM” value stood at 12.9%.

As for `O=C(O)c1ccccc1C(=O)c1ccc(N2CCCC2)c([N+](=O)[O-])c1`, the “hERG current change (%, negative = inhibition) at 10uM” value amounted to 13.8%. Consider `Cc1cc2c(cc1C)C(c1ccsc1)CC(=O)N2` (centres unmarked), for which the “hERG current change (%, negative = inhibition) at 10uM” value was -11.5%. The value for `O=C(Cc1ccccc1)N1CCN(C(=O)c2cccs2)CC1` was 6.2%. Regarding `CC1CCN(CC(=O)Nc2ccc(C(=O)N3CCCCC3)cc2)CC1.O=C(O)C(=O)O`, the “hERG current change (%, negative = inhibition) at 10uM” value was found to be 5.71%. With `CC12CCC(=O)N1C(C(=O)OCC(=O)Nc1ccc(C(F)(F)F)cc1)CS2` (centres unmarked), the “hERG current change (%, negative = inhibition) at 10uM” value is listed as -15.5%. In the case of `O=C(O)c1cccc(OCCN2CCCC2=O)c1`, the “hERG current change (%, negative = inhibition) at 10uM” value was found to be 11.5%. As to `S=C(Nc1ccc2nc(-c3ccccn3)c(-c3ccccn3)nc2c1)N1CCOCC1`, the “hERG current change (%, negative = inhibition) at 10uM” value is recorded as -69.6%. Consider `O=C(OCC(=O)N(CCc1ccccc1)Cc1ccccc1)c1cc(S(=O)(=O)N2CCOCC2)ccc1F`, for which the “hERG current change (%, negative = inhibition) at 10uM” value was -10.8%. As to `Cc1ccc2nc(SCc3nc4cc(Cl)ccc4c(=O)[nH]3)[nH]c2c1`, the “hERG current change (%, negative = inhibition) at 10uM” value is reported as -30.1%. Turning to `O=C(Nc1ccccc1)c1cccc2c(Br)cccc12`, the “hERG current change (%, negative = inhibition) at 10uM” value is 14.9%. As for `O=C(c1cc(Br)c(Br)s1)N1CCN(C/C=C/c2ccccc2)CC1`, the “hERG current change (%, negative = inhibition) at 10uM” value came out at 2%. Turning to `Cc1ccc(NC(=O)CCN2CC(C)OC(C)C2)cc1.Cl` (centres unmarked), the “hERG current change (%, negative = inhibition) at 10uM” value is recorded as 3.19%. Regarding `CCC(NC(=O)CCC(=O)N1CCN(S(=O)(=O)c2ccc(C)cc2)CC1)c1ccc(C)cc1` (centres unmarked), the “hERG current change (%, negative = inhibition) at 10uM” value is on record as -9.41%. Take `Cc1ccccc1COc1cccc(/C=N/NC(=O)c2nnn(-c3nonc3N)c2C)c1`: the “hERG current change (%, negative = inhibition) at 10uM” value turned out to be 21.3%.

For the compound `O=C(Nc1ccccc1)OCCOc1ccccc1`, the “hERG current change (%, negative = inhibition) at 10uM” value is -17.8%.

Consider `CCCCOc1cc(CC2CNC(=O)N2)ccc1OC` (centres unmarked), for which the “hERG current change (%, negative = inhibition) at 10uM” value is -2.83%.

Take `COC(=O)c1ccc(NC(=S)NC(=O)c2c(-c3ccccc3)noc2C)cc1`: the “hERG current change (%, negative = inhibition) at 10uM” value amounted to 21.2%. The value for `Cc1ccc(OC(=O)c2c(C)nn(-c3ccccc3)c2C)cc1` was -5.09%; that for `O=C(NCCc1cccs1)C1CCC(=O)N(CCc2cccc(F)c2)C1` (centres unmarked) was -26.1%. As for `COc1ccc(OC)c(NC(=O)NNC(=O)CCCOc2ccc(Cl)cc2C)c1`, the “hERG current change (%, negative = inhibition) at 10uM” value was -23.7%.

For the compound `CC(=O)c1cccc(S(=O)(=O)NCCC(=O)Nc2ccc(S(N)(=O)=O)cc2)c1`, the “hERG current change (%, negative = inhibition) at 10uM” value came to 23.1%.
